Reference: the antibiotic and cytotoxicity screens of Wong et al. (2023)
Some of the results follow.

test system: S. aureus RN4220; assay: growth inhibition call (relative growth <= 0.2); conditions: 50 µM

Growth inhibition call, inactive:
COc1ccccc1-c1ccc2c(c1)O[C@@H](CN(C)S(=O)(=O)c1ccccc1)[C@@H](C)CN([C@H](C)CO)S2(=O)=O
COc1ccc(CN(C)C[C@@H]2OCCCC[C@@H](C)Oc3ccc(NC(=O)Nc4c(C)noc4C)cc3C(=O)N([C@H](C)CO)C[C@@H]2C)cc1
Cc1cc(C(=O)Nc2cccc3c2O[C@@H](CN(C)S(=O)(=O)c2ccc(Cl)cc2)[C@@H](C)CN([C@@H](C)CO)C3=O)n(C)n1
C[C@@H]1CCCCO[C@@H](CN(C)CC2CCCCC2)[C@H](C)CN([C@@H](C)CO)C(=O)c2cc(N(C)C)ccc2O1
COCC(=O)N1C[C@H](C)[C@H](OC)CN(C)C(=O)c2ccc(NC(=O)Nc3cccc(F)c3)cc2OC[C@@H]1C
COc1ccc(S(=O)(=O)Nc2ccc3c(c2)C(=O)N([C@H](C)CO)C[C@@H](C)[C@@H](CN(C)S(=O)(=O)c2c(C)noc2C)O3)cc1
C[C@H](CO)N1C[C@H](C)[C@H](CN(C)Cc2cncnc2)Oc2ncc(C#C[C@@H](C)O)cc2C1=O
C[C@@H]1CN([C@@H](C)CO)C(=O)c2cc(NC(=O)Nc3ccccc3)ccc2O[C@@H](C)CCCCO[C@H]1CN(C)C(=O)Nc1ccc(C(F)(F)F)cc1
O=C(CCCCCCC(=O)Nc1ccc([C@@H]2O[C@H](CSc3nc(-c4ccccc4)c(-c4ccccc4)o3)C[C@H](c3ccccc3)O2)cc1)NO
C[C@H](CO)N1C[C@H](C)[C@H](CN(C)C(=O)Nc2cccc3ccccc23)Oc2ccc(NC(=O)NC3CCCCC3)cc2C1=O
